Among all 220,000 compounds or so, about 16,000 (7.3%) were called active. Inconclusive means that the source gave no clear call. Such entries were picked first, then a sample of the others. Calls follow the shape of the dose curve; as a rule, active = well fitted inhibition curve with a large enough effect (not every such curve was filed as active); inconclusive = small, poorly fitted or top-dose-only effect, or another doubt; inactive = no such curve, though single readings can be large or run the other way. Potencies of inconclusive entries are left out as doubtful fits.
Target: Aldehyde dehydrogenase 1A1 (Homo sapiens) (UniProt P00352)
Sequence of UniProt P00352 (P00352 whole entry, looked up): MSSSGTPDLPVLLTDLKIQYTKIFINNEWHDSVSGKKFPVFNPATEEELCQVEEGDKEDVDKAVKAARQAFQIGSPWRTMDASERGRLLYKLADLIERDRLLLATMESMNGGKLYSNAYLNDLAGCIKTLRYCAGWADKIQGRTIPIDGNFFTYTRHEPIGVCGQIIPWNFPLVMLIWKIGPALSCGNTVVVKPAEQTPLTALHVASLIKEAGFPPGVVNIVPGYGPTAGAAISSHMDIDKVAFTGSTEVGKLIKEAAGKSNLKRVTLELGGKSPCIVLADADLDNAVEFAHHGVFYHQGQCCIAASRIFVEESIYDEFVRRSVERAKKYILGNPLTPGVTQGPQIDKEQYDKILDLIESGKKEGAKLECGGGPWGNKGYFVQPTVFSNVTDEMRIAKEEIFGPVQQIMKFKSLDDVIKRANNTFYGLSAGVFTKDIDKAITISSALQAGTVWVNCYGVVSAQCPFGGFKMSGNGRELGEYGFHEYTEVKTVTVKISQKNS
Test: qHTS Assay for Inhibitors of Aldehyde Dehydrogenase 1 (ALDH1A1);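 as to activity, negative = inhibition: plate controls were no enzyme wells and a reference inhibitor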
Conditions: Purified ALDH1A1, NADH fluorescence, propionaldehyde substrate; series mostly up to 75.3 µM; activity, negative = inhibition: at the top concentration
Potency is read from the fitted curve at half-maximal effect; tags tell the direction and shape of the fitted curve.

SMILES	Potency	activity, negative = inhibition
Cc1cccc(CCNC(=O)C2CCC(CNS(=O)(=O)c3cccs3)CC2)c1 (stereo not drawn)	active: 1.78 µM	–
COc1cccc(C2=NNC(=NCc3ccccc3)SC2)c1	inconclusive [inhibitor, single point]	–
CC(C)[C@H](NC(=O)c1ccccc1Cl)C(=O)NC1CCCCCC1	–	inactive: 0.0784%
NC(=O)NC(=O)COC(=O)c1cccc(NS(=O)(=O)/C=C/c2ccccc2)c1	inconclusive [inhibitor, single point]	–
O=C1CC(N2CCN(c3ccc(C(=O)c4ccc(F)cc4)cc3)CC2)C(=O)N1 (stereo not drawn)	–	inactive: -5.07%
CC(Sc1nnc(-c2ccc(C(C)(C)C)cc2)n1C)C(N)=O (stereo not drawn)	inconclusive [inhibitor, single point]	–
COc1ccc(CN2CCNC(=O)C2CC(=O)NCCSc2nccn2C)cc1OC (stereo not drawn)	inconclusive [inhibitor, single point]	–
CCOC(=O)N1CCC(c2[nH][nH]c(=O)c2C)CC1	–	inactive: -5.31%
C/C=C/c1ccc(OCCCNC(C)CC)c(OC)c1 (stereo not drawn)	active: 15.8 µM	–
Cc1ccc(OCC(=O)Nc2cccc(S(=O)(=O)N3CCOCC3)c2)c([N+](=O)[O-])n1	inconclusive [inhibitor, single point]	–
COC(=O)c1c(NC(=O)CN2C(=O)c3ccccc3C2=O)sc(Cc2ccc3c(c2)OCO3)c1C	inconclusive [inhibitor, single point]	–
Cc1cc2ccccc2nc1SCC(=O)NC1CCCC1	inconclusive [inhibitor, single point]	–
Cc1cc(-c2csc(N)n2)c(C)n1CCc1ccccc1	inconclusive [inhibitor, single point]	–
COc1ccc(Cl)cc1NC(=O)CN1CCc2ccccc21	active: 7.94 µM	–
O=C(O)CCN=C1CCCc2ccccc2N1	active: 31.6 µM	–
COc1ccc(C(=O)Nc2cc(OCc3ccccc3)c(Cl)cc2Cl)cc1	inconclusive [inhibitor, single point]	–
CCOC(=O)Cn1nnnc1C(C(C)C)N(Cc1cc2c(C)cc(C)cc2[nH]c1=O)C1CCCC1 (stereo not drawn)	active: 3.55 µM	–
Cc1ccc(N2C(=O)CC(Sc3ncn[nH]3)C2=O)cc1 (stereo not drawn)	active: 11.2 µM	–
C=CCc1cc(C)ccc1OCCn1ccnc1	inconclusive [inhibitor, single point]	–
CCOC(=O)c1c(N)sc(=S)c2c1CCC2	active: 31.6 µM	–
C=CCN1CCc2c(cc(O)c(O)c2Br)[C@@H](c2ccccc2)C1	inactive	–
CCC1=C2CC[C@H]3C(=O)N(C)C(=O)[C@H]3[C@H]2[C@@]2(C)C(=NCC(=O)OC)OC(=O)N2C1=O	–	inactive: -1.88%
O=S(=O)(c1ccc(Br)cc1)N1CCOC12CCCCC2	inconclusive [inhibitor, single point]	–
CCOC(=O)CNS(=O)(=O)c1ccc2c3c(cccc13)C(=O)N2CC	inconclusive [inhibitor, partial curve]	–
Cc1nc(CS(=O)(=O)c2ccccc2)cc(Sc2ccc(Cl)cc2)n1	inconclusive [inhibitor, single point]	–

SMILES	Potency	activity, negative = inhibition
Cc1cc(C(F)F)n2nc(C(=O)Nc3sc4c(c3C#N)CCC(C)C4)nc2n1 (stereo not drawn)	inconclusive [inhibitor, single point]	–
NS(=O)(=O)c1ccc2c(c1)C1C=CCC1C(C1CC=CCC1)N2 (stereo not drawn)	inconclusive [inhibitor, single point]	–
Cn1cc(C(=O)N2CCN(C(=O)c3ccco3)CC2)c2c3ccccc3n(C)c2c1=O	inconclusive [inhibitor, partial curve]	–
N#CCCN1CCN(S(=O)(=O)c2ccc(S(=O)(=O)N3CCCC3)cc2)CC1	–	inactive: -6.46%
O=C(Nc1ccc(C(=O)Oc2ccccc2)c(O)c1)c1ccco1	inconclusive [inhibitor, single point]	–
CN(C)CCCNCCNC(=O)/C=N\O	inconclusive [inhibitor, single point]	–
COc1ccc(OC)c2[nH]c(=O)c(CCNC(=O)c3ccc4c(c3)OCO4)cc12	inconclusive [inhibitor, partial curve]	–
Cc1ccc2nc(-c3ccc(NC(=S)NC(=O)C(C)C)cc3)sc2c1	inconclusive [inhibitor, partial curve]	–
COc1ccc(CCNCC2C(Oc3ccc(Cl)cc3)C(=O)N2c2ccccc2C)cc1OC (stereo not drawn)	inconclusive [inhibitor, single point]	–
C=CCOc1ccnc(-c2ccccc2)n1	–	inactive: 9.14%
COc1cc(C)ccc1OCCOCCOc1cccc2ccc(C)nc12	inconclusive [inhibitor, single point]	–
COc1ccc(CCNC(=O)c2ccc(CNS(=O)(=O)c3ccccc3)cc2)cc1OC	active: 2.51 µM	–
Cc1ccc(-n2[nH]c(C)c(/C=N/N3C(=O)c4cccc5cccc(c45)C3=O)c2=O)cc1	–	inactive: 4.67%
O=C(Nc1ccccc1)N1CCN(S(=O)(=O)c2ccccc2)CC1	–	inactive: 0.43%
FC(F)(F)c1cnc(/C=C/Nc2ccccc2Cl)c(Cl)c1	–	inactive: -2.08%
COc1ccc(C(=O)NNC(=O)c2snnc2C)cc1	inconclusive [inhibitor, single point]	–
COC(=O)c1ccc(O)cc1	–	inactive: -6.32%
CC1(C)CC(=O)CC2(C1)NCC(c1ccccc1)c1c2[nH]c2ccccc12 (stereo not drawn)	inconclusive [inhibitor, single point]	–
O=C(COc1cccc2ccccc12)N1CCN(c2ccccc2)CC1	inconclusive [inhibitor, single point]	–
O=C(COC(=O)c1ccc(Cl)nc1)NCc1cccs1	active: 8.91 µM	–
O=C(Nc1ccc(Cl)cc1)Nc1ccc(N2CCCC2)c(S(=O)(=O)Nc2ccccc2Cl)c1	–	inactive: -4.75%
Cc1ccc(/C=C2/SC(=S)N(CCC(=O)N3CCN(C)CC3)C2=O)cc1	inconclusive [inhibitor, partial curve]	–
COc1c(-c2ccc(O)c(O)c2)oc2cc(O)cc(O)c2c1=O	–	inactive: -7.09%
CC1(C)C(O)C=C[C@@]2(C)C1CC(=O)O[C@@]1(C)C3=CC(=O)OC(c4ccoc4)[C@]3(C)CCC21 (stereo partly drawn)	active: 22.4 µM	–
COc1cc(/C=N/n2cnnc2)ccc1OCc1ccccc1	inconclusive [inhibitor, partial curve, poor fit]	–

SMILES	Potency	activity, negative = inhibition
COc1ccc2c(c1)nc(SCC(=O)c1cccs1)n2C	inconclusive [inhibitor, single point]	–
CCOC(=O)CC(=O)CSc1nc(-c2cccnc2)ccc1C#N	inconclusive [inhibitor, partial curve]	–
Cc1ccccc1Nc1c(-c2ccncc2)nc2ccc(Cl)cn12	inconclusive [inhibitor, partial curve]	–
O=C(NCCO)C1CCN(C(=O)c2ccc(-c3ccccc3)cc2)CC1	–	inactive: -6.41%
CC(Oc1ccccc1)C(=O)Nc1cccc(F)c1 (stereo not drawn)	–	inactive: -3.42%
CC(C)(C)OC(=O)COc1cc(O)c2c(=O)cc(-c3ccccc3)oc2c1	–	inactive: -3.53%
O=C(Cn1nnc(-c2ccccc2-n2cnnn2)n1)c1ccccc1	active: 12.6 µM	–
CN(CC(=O)Nc1ccc(Cl)cc1)CC(=O)Nc1cc(Cl)ccc1C#N	inconclusive [inhibitor, single point]	–
CC(C)=NOC[C@@H](O)[C@@H]1O[C@@H]2OC(C)(C)O[C@@H]2[C@H]1O	–	inactive: 8.99% [at 13.5 µM]
CC1(C)CC2CC(C)(CN2C(=O)c2cccs2)C1 (stereo not drawn)	inconclusive [inhibitor, single point]	–
Nc1nnc(-c2ccc(Cl)cc2Cl)s1	inconclusive [inhibitor, single point]	–
CC1=C(C(=O)Nc2ccccc2)C(c2ccc(C)o2)n2c(s/c(=C\c3ccco3)c2=O)=N1 (stereo not drawn)	inconclusive [inhibitor, single point]	–
COc1ccc(-c2c(C)cc3oc(=O)cc(-c4ccccc4)c3c2C)cc1OC	inconclusive [inhibitor, single point]	–
Cc1nnc(Nc2ccc(Cl)c(C(F)(F)F)c2)[nH]c1=O	–	inactive: -1.95%
CC(C)c1nc(N2CCN(C(=O)c3ccccc3)CC2)c(C#N)c2c1COC(C)(C)C2	inconclusive [inhibitor, partial curve]	–
O=C(N/N=C(\CC(=O)c1cccs1)C(F)(F)F)c1ccncc1	inconclusive [inhibitor, single point]	–
CC1=CS(=O)(=O)CC1Sc1nc(C)n[nH]1 (stereo not drawn)	–	inactive: 12.5%
O=C1CCC(CCC(=O)N2CCCC(C(=O)c3ccc4c5c(cccc35)CC4)C2)=NN1 (stereo not drawn)	inconclusive [inhibitor, partial curve]	–
COc1c2ccc(C(=O)NCc3cc(C(F)(F)F)cc(C(F)(F)F)c3)cc2nn1C	inconclusive [inhibitor, single point]	–
O=C(NC(=S)Nc1cnc2ccccc2c1)c1ccccc1	inconclusive [inhibitor, partial curve]	–
Cc1ccc(N(O)C(=O)OCCNC(=O)Nc2ccccc2)cc1	–	inactive: -2.72%
CCCN1CCN(C(c2cc3cc4c(cc3[nH]c2=O)OCO4)c2nnnn2C(C)(C)C)CC1 (stereo not drawn)	inconclusive [inhibitor, partial curve]	–
COc1ccc(Oc2ncc3nc(-c4ccc(OC)cc4)c(=O)n(CCC#N)c3n2)cc1	inconclusive [inhibitor, single point]	–
